We go through 2 molecules from patent US20190002533A1.

For the test, the target named is BKV serotype III VP1 pentamer (BK virus (BKV) serotype III), P14996. The test is described as follows: SET (solution equilibrium titration). The conditions noted are these: remark: other sources report otherwise.

Substitutions are numbered along the chain they refer to. Bounds are passed on as bounds.

B1: NEG447A (antibody, human IgG1, lambda)
heavy: QVQLQESGPGLVKPSETLSLTCTVSGGSISRDYWSWVRQPPGAGLEWIGNIYYSGSTNYNPSLKSRVTISVATNKKQFSLKLTSVTAADTAVYYCARVPGCSSTSCIDGWFDPWGQGILVTVSSASTKGPSVFPLAPSSKSTSGGTAALGCLVKDYFPEPVTVSWNSGALTSGVHTFPAVLQSSGLYSLSSVVTVPSSSLGTQTYICNVNHKPSNTKVDKRV[sequence of human IgG1 Fc omitted]
light: QSVLTQPPSVSAAPGQKVTISCSGSSSNIGNTYVSWYQQLPGTAPKLLIYDNNKRPSGIPDRFSGSKSGTSATLGITGLQTGDEADYYCGTWDSSLSAWVFGGGTRLTVLGQPKAAPSVTLFPPSSEELQANKATLVCLISDFYPGAVTVAWKADSSPVKAGVETTTPSKQSNNKYAASSYLSLTPEQWKSHRSYSCQVTHEGSTVEKTVAPTECS
For orientation: Kd means the equilibrium constant for the complex coming apart. Low readings indicate higher affinity, high ones lower affinity. Molecule B1 had a Kd of more than 10 nM.

B2: P7G11 (antibody, human IgG1, lambda)
heavy: QVQLQESGPGLAKPSQTLSLTCSVSGGSISSGGYSWSWIRQPPGKGLEYIGYIYYRGTTYYNPSLKSRITMSVDTSNNQISLKLTSVTAADTAVYYCARALTHLVGVGWFDPWGQGTMVTVSSASTKGPSVFPLAPSSKSTSGGTAALGCLVKDYFPEPVTVSWNSGALTSGVHTFPAVLQSSGLYSLSSVVTVPSSSLGTQTYICNVNHKPSNTKVDKRV[sequence of human IgG1 Fc omitted]
light: B1 light with S25G, I29L, N31S, T32N, S94G, R106K, L107V
Molecule B2 returned a Kd of more than 10 nM.
